Source: the supplement of paper PMC12217912
Some of the results follow. Sequences were assembled here from the parent chain. Inactive controls read about 0.05.

B1: TEV protease; numbered along this chain (parent)
chain: MGESLFKGPRDYNPISSSICHLTNESDGHTTSLYGIGFGPFIITNKHLFRRNNGTLVVQSLHGVFKVKDTTTLQQHLVDGRDMIIIRMPKDFPPFPQKLKFREPQREERICLVTTNFQTKSMSSMVSDTSCTFPSGDGIFWKHWIQTKDGQCGSPLVSTRDGFIVGIHSASNFTNTNNYFTSVPKNFMELLTNQEAQQWVSGWRLNADSVLWGGHKVFMVKPEEPFQPVKEATQL

Variants of: B1
Assay: raw area under fraction-flipped curve 0-4 h after induction (AUC4h, not background-subtracted), DNA-recorder readout of cleavage of the substrate (dimensionless); higher = more cleavage of the substrate by the protease variant
Settings: temperature: 34 °C; time window: 0-4 h after rhamnose induction
Procedure: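 In vivo DNA recorder in E. coli TOP10(DE3) ΔrhaA at 34 °C. Each TEVp single-site mutant (parent TEVp 0) is paired with a single-site variant of the 7-mer TEVs (canonical ENLYFQ|S). The substrate sits between flexible linkers in a Bxb1-sfGFP-TEVs-SsrA fusion, so cleavage stabilises Bxb1 and speeds flipping of a recombination array, read by NGS. The value is the raw area under the fraction-flipped curve over 0-4 h after rhamnose induction (AUC4h), with ≥20 reads per time point. It is not background-subtracted; inactive controls average about 0.047.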
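Note: Bxb1 expression induced with 0.2% (w/v) L-rhamnose at OD600 near 0.5, cultures sampled hourly, flipped fraction per protease–substrate barcode pair counted by paired-end Illumina sequencing.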

| Variant | area with substrate ENLYFAS | area with substrate ENLYFCS | area with substrate ENLYFDS | area with substrate ENLYFES | area with substrate ENLYFFS | area with substrate ENLYFHS | area with substrate ENLYFIS | area with substrate ENLYFKS | area with substrate ENLYFMS | area with substrate ENLYFPS | area with substrate ENLYFRS | area with substrate ENLYFTS | area with substrate ENLYFVS | area with substrate ENLYFLS | area with substrate ENLYFNS | area with substrate ENLYFWS | area with substrate ENLYFYS | area with substrate ENLYFGS | area with substrate ENLYFSS |
| --- | --- | --- | --- | --- | --- | --- | --- | --- | --- | --- | --- | --- | --- | --- | --- | --- | --- | --- | --- |
| I85G | 0.0507 | 0.0076 | 0.053 | 0.0514 | 0.0617 | 0.0409 | 0.0533 | 0.0628 | 0.051 | 0.0594 | 0.0434 | 0.0564 | 0.0424 |  |  |  |  |  |  |
| I86A | 0.0463 | 0.0554 |  |  | 0.0601 | 0.0551 | 0.0524 |  | 0.0456 | 0.0608 |  | 0.0578 | 0.0388 | 0.0619 | 0.0676 | 0.0421 | 0.0562 |  |  |
| I86G | 0.0512 | 0.0266 |  | 0.03 |  |  |  | 0.0335 | 0.0428 | 0.0299 | 0.0396 | 0.0452 |  |  |  |  | 0.0331 | 0.0432 | 0.0465 |
| R87W | 0.0648 |  |  | 0.0737 |  |  |  | 0.0665 | 0.069 | 0.0532 | 0.061 |  |  |  | 0.0556 |  | 0.0562 |  |  |
| M88S | 0.0517 | 0.0554 |  |  |  | 0.0538 | 0.0522 |  |  | 0.0576 |  |  | 0.0578 |  |  | 0.0543 |  |  |  |
| K90C | 0.0623 | 0.0545 |  |  |  |  | 0.0491 | 0.0523 | 0.0648 | 0.0416 | 0.0576 | 0.0844 |  | 0.103 | 0.0648 |  |  | 0.0533 |  |
| K90Q | 0.0693 | 0.0675 |  |  | 0.0676 |  | 0.007 |  | 0.0696 | 0.0496 |  | 0.0563 | 0.0722 | 0.062 | 0.0715 |  |  |  | 0.0676 |
| K90Y | 0.0617 |  |  | 0.0524 |  | 0.0483 | 0.0524 |  | 0.0619 |  | 0.0269 |  |  |  |  | 0.0514 | 0.0242 |  |  |
| D91V | 0.0543 |  | 0.0547 | 0.0587 | 0.0606 | 0.0504 | 0.0494 | 0.0575 | 0.0599 | 0.0611 | 0.0621 |  | 0.0613 |  | 0.0691 |  | 0.0572 |  |  |
| P93H | 0.0615 |  |  | 0.063 | 0.061 |  | 0.058 |  | 0.0763 | 0.0598 | 0.0564 |  |  |  | 0.0843 | 0.0519 |  |  |  |
| P93Q | 0.0574 | 0.0528 | 0.0627 |  | 0.0733 | 0.0713 | 0.0632 |  | 0.0744 | 0.0244 |  |  |  | 0.0442 |  | 0.0601 | 0.0653 | 0.0726 |  |
| P93R | 0.076 |  |  | 0.0755 | 0.0627 | 0.0534 |  |  |  |  | 0.0602 |  |  |  |  |  |  |  |  |
| F95T | 0.0452 | 0.0678 | 0.0444 | 0.0541 | 0.0394 |  | 0.0295 |  | 0.0481 | 0.0256 |  |  |  |  |  |  | 0.0155 |  | 0.0484 |
| K98Y | 0.0619 | 0.0581 | 0.0575 | 0.0652 |  | 0.0709 | 0.0547 | 0.0808 | 0.0795 | 0.0609 | 0.0669 | 0.056 | 0.065 | 0.0619 | 0.0612 |  | 0.0657 | 0.0602 | 0.0732 |
| K100M | 0.0613 |  |  |  |  |  |  | 0.0678 |  | 0.0544 |  | 0.0314 |  |  |  | 0.0658 | 0.0503 | 0.0462 |  |
| F101T | 0.0498 |  | 0.029 | 0.0525 | 0.0758 |  | 0.0491 | 0.0526 |  | 0.0459 |  |  |  |  | 0.0507 |  |  |  | 0.0475 |
| E103F | 0.0645 | 0.0591 | 0.0701 | 0.0795 |  |  |  |  |  | 0.0723 |  |  |  | 0.0907 |  |  |  |  |  |
| P104E | 0.0564 |  |  | 0.0606 | 0.0514 |  | 0.0483 |  | 0.0503 | 0.0485 | 0.0501 |  | 0.0492 |  | 0.0484 | 0.0446 | 0.0537 | 0.0272 |  |
| Q105H | 0.0386 | 0.0819 |  | 0.064 | 0.0771 | 0.0422 | 0.073 | 0.0292 |  | 0.0461 | 0.0573 |  | 0.0637 |  |  |  |  |  | 0.0537 |
| R106L | 0.0579 | 0.0708 |  | 0.086 | 0.0664 |  | 0.0608 | 0.103 | 0.101 | 0.0684 |  |  | 0.0527 |  | 0.0724 |  |  |  | 0.0622 |
| E107C | 0.0753 | 0.0445 |  | 0.0724 |  |  | 0.0685 |  |  | 0.0595 |  |  |  |  |  | 0.0523 | 0.0698 | 0.0714 |  |
| E107F | 0.0242 | 0.0569 |  | 0.0594 | 0.0743 | 0.0623 | 0.0526 |  |  | 0.0557 |  | 0.054 |  |  |  |  |  |  | 0.0522 |
| E108C | 0.0558 |  | 0.067 | 0.0574 | 0.0641 | 0.0496 | 0.0556 | 0.0615 | 0.0535 |  |  | 0.0407 | 0.0712 | 0.0656 | 0.0586 | 0.0592 | 0.0815 |  | 0.0404 |
| E108H | 0.0568 | 0.0404 | 0.0563 | 0.0521 | 0.0636 | 0.0552 | 0.0504 | 0.0449 | 0.0496 | 0.0604 | 0.0536 | 0.0504 |  | 0.0484 | 0.0495 |  | 0.0428 | 0.0532 | 0.0659 |
| E108L | 0.0421 |  |  | 0.0484 | 0.0703 | 0.0453 | 0.059 | 0.0659 | 0.0595 | 0.0571 | 0.0557 | 0.0621 |  |  |  |  | 0.0421 | 0.0527 | 0.0475 |
| I110C | 0.0627 | 0.0583 |  | 0.0732 | 0.0507 | 0.105 | 0.0537 | 0.0584 | 0.0673 | 0.0473 |  | 0.0546 | 0.0401 | 0.0541 | 0.0659 | 0.0646 | 0.0637 |  | 0.0692 |
| I110P | 0.0685 | 0.0574 |  | 0.0563 | 0.0586 |  | 0.0536 | 0.0551 |  |  |  |  |  |  |  |  |  |  | 0.0608 |
| C111F | 0.0869 | 0.0626 | 0.0402 | 0.0179 | 0.0917 | 0.065 | 0.0392 | 0.0634 | 0.0706 | 0.0795 |  | 0.0495 | 0.0633 | 0.0558 | 0.0731 | 0.0553 |  | 0.0307 | 0.07 |
| C111R | 0.0621 | 0.0672 |  | 0.0603 |  | 0.0505 | 0.0581 |  | 0.0511 | 0.06 | 0.0753 |  | 0.0572 |  | 0.0537 | 0.0524 |  | 0.0692 |  |
| C111V | 0.0496 | 0.0578 | 0.062 | 0.0495 | 0.0686 | 0.0713 | 0.057 | 0.0803 | 0.0577 | 0.0579 | 0.0389 | 0.0659 |  | 0.0644 | 0.0634 | 0.0542 | 0.0579 | 0.0509 |  |
